{"source": "the RNAGym collection of RNA variant scans (doi:10.1093/nar/gkz1192)", "parents": {"B1": {"name": "CPEB3 Ribozyme (parent)", "chain": "UAACAGGGGGCCACAGCAGAAGCGUUCACGUCGCAGCCCCUGUCAGAUUCUGGUGAAUCUGCGAAUUCUGCUGUAUAUCUC"}}, "note": "Read counts are not given, so values of variants with three or more changes are uncertain."}
{"variants_of": "B1", "assay": "self-cleavage, relative activity (ratio to wild type); higher = more cleavage; in vitro, sequencing", "procedure,_shortened": "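Relative activity was defined as the cleaved/total read fraction for a variant divided by the same fraction for the unmutated ribozyme. CPEB3 self-cleaving ribozyme libraries were made by rounds of error-prone PCR, barcoded, and transcribed in vitro with T7 RNA polymerase for 5 hours at 37°C, and cleavage ran through transcription plus a 15 min DNase I step before EDTA. Illumina sequencing of template-switched reverse transcripts gave the reads, and DNA sequencing mapped the barcodes. Averages come from three batches, using variants with at least 5 reads.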"}
{"variant": "UAACAGGGAGCCACAGCAGAAGCGUUCACGUCGCAGCCCCUGACAGUUUCAGGUGAAUCUGCGAAUUCUGCUGUACAUCUC", "note": "[G9A U43A A47U U51A U76C]", "self-cleavage": 0.17}
{"variant": "UAACAGGGAGCCACAGCAGAAGCGUUCACGUCGCAGCCCCCGUCAGAUUCUGGAGAAUCUGCGAAUUCUGCUGUAUAUCCC", "note": "[G9A U41C U54A U80C]", "self-cleavage": 0.16}
{"variant": "UAACAGGGAGCCACAGCAGAAGCGUUCACGUCGCAGCCCCUGUCAGAUUCGGGUGAAUCUGCGAGUUCUGCCGUACAUCUC", "note": "[G9A U51G A65G U72C U76C]", "self-cleavage": 0.05}
{"variant": "UAACAGGGAGCCACAGCAGAAGCGUUCACGUCGCAGCCCCUGUCAGAUCCUGGCUAAUCUGCGAAUUCUGCUGUAUAUCUC", "note": "[G9A U49C U54C G55U]", "self-cleavage": 0.16}
{"variant": "UAACAGGGAGCCACAGCAGAAGCGUUCACGUCGCAGCCCCUGCCAGAUUCUGGUGAAUCUGCGAAUUCUGCCGUAUAUCUC", "note": "[G9A U43C U72C]", "self-cleavage": 0.3}
{"variant": "UAACAGGGAGCCACAGCAGAAGCGUUCACGUCGCAGCCCCUGUCAGAUCCAGGCGAAUCUGCGAAUUCUGCUGUAUAUCUC", "note": "[G9A U49C U51A U54C]", "self-cleavage": 0.07}
{"variant": "UAACAGGGAGCCACAGCAGAAGCGUUCACGUCGCAGCCCCUGCCUGAUUCUGGCGUAUCUGCGAAUUCAGCAGUAUAUCUC", "note": "[G9A U43C A45U U54C A56U U69A U72A]", "self-cleavage": 0.04}
{"variant": "UAACAGGGAGCCACAGCAGAAGCGUUCACGUCGCAGCCCCUGUCAGAUCCUGGUGAAUCUGCGGAUUCUGCUGUAUAUCUC", "note": "[G9A U49C A64G]", "self-cleavage": 0.18}
{"variant": "UAACAGGGAGCCACAGCAGAAGCGUUCACGUCGCAGCCCCCGACAGAUUCUGGUGAGUCUGCGAAUUCUGCUGUAUAUCUC", "note": "[G9A U41C U43A A57G]", "self-cleavage": 0.15}
{"variant": "UAACAGGGAGCCACAGCAGAAGCGUUCACGUCGCAGCCCCUGUCAGACUCUGGAGGAUCUGCGUAUUCUGCUGUAUAUCUC", "note": "[G9A U48C U54A A56G A64U]", "self-cleavage": 0.05}
{"variant": "UAACAGGGAGCCACAGCAGAAGCGUUCACGUCGCAGCCCCUGCCCGACUCUGGUGAAUCUGCGAAUUCAGCUAUAUAUCUC", "note": "[G9A U43C A45C U48C U69A G73A]", "self-cleavage": 0.06}
{"variant": "UAACAGGGAGCCACAGCAGAAGCGUUCACGUCGCAGCCCCUGAAAGAUUCUGGUGAAACUGCGAAUUCUGCUGUAUAUCUC", "note": "[G9A U43A C44A U58A]", "self-cleavage": 0.14}
{"variant": "UAACAGGGAGCCACAGCAGAAGCGUUCACGUCGCAGCCCCUGUCAGAUUCAGGUGAAUCUGCGAAUUCUGCGGUGUAUCUC", "note": "[G9A U51A U72G A75G]", "self-cleavage": 0.31}
{"variant": "UAACAGGGAGCCACAGCAGAAGCGUUCACGUCGCAGCCCCAGUCAGACUCUGGUGAAUCUGCGAAUUCUGAUGUAUAUCUC", "note": "[G9A U41A U48C C71A]", "self-cleavage": 0.05}
{"variant": "UAACAGGGAGCCACAGCAGAAGCGUUCACGUCGCAGCCCCUGCCAGAUUCUGGUGAAUCUGCGAAUUCUGCUGUACAUCUC", "note": "[G9A U43C U76C]", "self-cleavage": 0.18}
{"variant": "UAACAGGGAGCCACAGCAGAAGCGUUCACGUCGCAGCCCCAGUCAGAUUCUGGUGAAUCUGCGAAUACUGCUGUACAUCUC", "note": "[G9A U41A U67A U76C]", "self-cleavage": 0.14}
{"variant": "UAACAGGGAGCCACAGCAGAAGCGUUCACGUCGCAGCCCCUGUCAGAUACUGGUGAAUCUGCGAAUCCUGCUGUAUAUCUC", "note": "[G9A U49A U67C]", "self-cleavage": 0.14}
{"variant": "UAACAGGGAGCCACAGCAGAAGCGUUCACGUCGCAGCCCCUGUCAGAUCCUGGUUAUUCUGCGAAUUCUGCUGUAUACCUC", "note": "[G9A U49C G55U A57U U78C]", "self-cleavage": 0.09}
{"variant": "UAACAGGGAGCCACAGCAGAAGCGUUCACGUCGCAGCCCCUGACAGAUUCUGGUGAAUCUGCGAAUUCUGCUGUAUAUCCC", "note": "[G9A U43A U80C]", "self-cleavage": 0.39}
{"variant": "UAACAGGGAGCCACAGCAGAAGCGUUCACGUCGCAGCCCCUGACAGAUUCUGGUAAGUCAGUGAAUUCUGCUGUAUAUCUC", "note": "[G9A U43A G55A A57G U60A C62U]", "self-cleavage": 0.08}
{"variant": "UAACAGGGAGCCACAGCAGAAGCGUUCACGUCGCAGCCCCAGCCAGAUUCUGGUGAAUCUGCGAAUUCUGCUGUAUAUCUC", "note": "[G9A U41A U43C]", "self-cleavage": 0.15}
{"variant": "UAACAGGGAGCCACAGCAGAAGCGUUCACGUCGCAGCCCCAGUCGGAUUCUGGUGAAUCUGCGGAUUCUGCCGUAUAUCUC", "note": "[G9A U41A A45G A64G U72C]", "self-cleavage": 0.21}
{"variant": "UAACAGGGAGCCACAGCAGAAGCGUUCACGUCGCAGCCCCAGUCAGAUUCGGGUGAAUCUGCGAGUUCUACUGUAUAUCUC", "note": "[G9A U41A U51G A65G G70A]", "self-cleavage": 0.09}
{"variant": "UAACAGGGAGCCACAGCAGAAGCGUUCACGUCGCAGCCCCUGUCAGAUCCUGGUGAAUCUGCGAAUUCUGCUGUAUGUCUC", "note": "[G9A U49C A77G]", "self-cleavage": 0.31}
{"variant": "UAACAGGGAGCCACAGCAGAAGCGUUCACGUCGCAGCCCCUGACAGAUUCGGGUGAAUCUGCGUAUUCUGCAGUAUAACUC", "note": "[G9A U43A U51G A64U U72A U78A]", "self-cleavage": 0.08}
{"variant": "UAACAGGGAGCCACAGCAGAAGCGUUCACGUCGCAGCCCCUGUCAGAUACUGGUGAAUCUGCGUGCUCUGCUGUGUAUCUC", "note": "[G9A U49A A64U A65G U66C A75G]", "self-cleavage": 0.03}
{"variant": "UAACAGGGAGCCACAGCAGAAGCGUUCACGUCGCAGCCCCUGUCAGAUUCCGGUGAAUCUGCGAACUCUGCUGUAUAUCUC", "note": "[G9A U51C U66C]", "self-cleavage": 0.07}
{"variant": "UAACAGGGAGCCACAGCAGAAGCGUUCACGUCGCAGCCCCUGCCAGCCUCUGGUGAAUCAGCGGAUUCUGCUGUAUAUCUC", "note": "[G9A U43C A47C U48C U60A A64G]", "self-cleavage": 0.12}
{"variant": "UAACAGGGAGCCACAGCAGAAGCGUUCACGUCGCAGCCCCAGUCAGAUUCUGGAGAAUCUGCGAAUUCUGCUGUAUAUCUC", "note": "[G9A U41A U54A]", "self-cleavage": 0.05}
{"variant": "UAACAGGGAGCCACAGCAGAAGCGUUCACGUCGCAGCCCCUGUCAGAUUCCGGUGAAACUGCGAAUUCUGCCGUAUAUCUC", "note": "[G9A U51C U58A U72C]", "self-cleavage": 0.07}
{"variant": "UAACAGGGAGCCACAGCAGAAGCGUUCACGUCGCAGCCCCUGCCAGAUUCUGGUGUGUCAGCGAAUUCUGCUGUAUAUCUC", "note": "[G9A U43C A56U A57G U60A]", "self-cleavage": 0.08}
{"variant": "UAACAGGGAGCCACAGCAGAAGCGUUCACGUCGCAGCCCCAGUCAGAUUCUGGUGAAUCUGCGAAUUCUGCUGUAUAUCCC", "note": "[G9A U41A U80C]", "self-cleavage": 0.15}
{"variant": "UAACAGGGAGCCACAGCAGAAGCGUUCACGUCGCAGCCCCUGACAGAUUCUGGUGGAGCUGCGAAUUCUGCUGUAUAUCUC", "note": "[G9A U43A A56G U58G]", "self-cleavage": 0.05}
{"variant": "UAACAGGGAGCCACAGCAGAAGCGUUCACGUCGCAGCCCCUGUCAGAUUCCGGUGAAUCUGCGAAUCCUGCUGUACAUCUC", "note": "[G9A U51C U67C U76C]", "self-cleavage": 0.18}
